Measurements: the supplement of paper PMC10723795
Counter-ions that a name gives are not always drawn. The list shows a part of the results.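 The calls were made as follows: active = more than 2 SD below the DMSO mean: under 0.85 at 10 µM or 0.885 at 1 µM; inactive = the rest.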 Many values rest on one well or one pass, so single values are uncertain.

Tested on: RPE1
Assay: nucleolar normality score relative to DMSO (fraction of DMSO control); RPE1 is a non-cancer human cell line; higher = more normal nucleoli (less nucleolar stress)
Conditions: 24 h
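Also: fixed cells immunolabelled for nucleolin and UBF, 40 image fields per well in 384-well plates, per-cell score = nucleolin nucleolar/nucleoplasm intensity ratio divided by the matching UBF ratio.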

| SMILES | nucleolar normality score (1 µM) | nucleolar normality score (10 µM) |
| --- | --- | --- |
| Cc1nn(C)c(COc2ccc(N3CCN(S(=O)(=O)N(C)C)CC3)cc2)c1-c1cccc2c(CCCOc3cccc4ccccc34)c(C(=O)O)n(CCN3CCOCC3)c12 | inactive: 1.05 | inactive: 0.903 |
| Cc1ccc(C(=O)N(CCCN)[C@@H](c2nc3cc(Cl)ccc3c(=O)n2Cc2ccccc2)C(C)C)cc1 | active: 0.774 | inactive: 0.895 |
| O=c1cc(N2CCOCC2)oc2c(-c3ccc4c(c3)OCCO4)csc12 | inactive: 0.926 | inactive: 0.985 |
| Nc1ncnc2c1c(I)cn2C1OC(CO)C(O)C1O (stereo not given) [5-Iodotubercidin] | inactive: 0.993 | inactive: 1.01 |
| COc1cc2ncnc(Nc3ccc(F)c(Cl)c3)c2cc1NC(=O)/C=C/CN1CCCCC1 | inactive: 1.06 | active: 0.813 |
| CC(C)CCn1c(CN2CCN(C(=O)C3CC3)CC2)nc2c1c(=O)n(C)c(=O)n2C | inactive: 0.99 | inactive: 1.03 |
| CC(C)(C)c1cc(NC(=O)Nc2ccc(Oc3ccnc4[nH]c(=O)cnc34)cc2F)n(-c2ccccc2)n1 | inactive: 1 | inactive: 1.04 |
| CC(C)(O)CNc1nc(Nc2ccnc(C(F)(F)F)c2)nc(-c2cccc(C(F)(F)F)n2)n1 [Enasidenib (AG-221)] | inactive: 0.933 | inactive: 1.08 |
| Cc1cc(Nc2ncc(Cl)c(Nc3ccccc3S(=O)(=O)C(C)C)n2)c(OC(C)C)cc1C1CCNCC1 [Ceritinib (LDK378)] | inactive: 1.07 | active: 0.553 |
| CC(Cc1ccc(O)c(O)c1)C(C)Cc1ccc(O)c(O)c1 (stereo not given) [Nordihydroguaiaretic acid (NDGA)] | inactive: 1.08 | inactive: 0.926 |
| C[C@@H](Oc1cc(-c2cnn(C3CCNCC3)c2)cnc1N)c1c(Cl)ccc(F)c1Cl | active: 0.795 | active: 0.699 |
| COc1cc(-c2cc(-c3ccc(N4CCNCC4)cc3)cnc2C)cc(OC)c1OC | inactive: 0.912 | inactive: 0.972 |
| Nc1ccccc1NC(=O)c1ccc(CNc2nccc(-c3cccnc3)n2)cc1 [Mocetinostat (MGCD0103)] | inactive: 0.955 | inactive: 0.971 |
| Cn1sc(=O)n(Cc2ccccc2)c1=O | inactive: 1.02 | inactive: 0.86 |
| Nc1ncnc2c1ncn2[C@@H]1O[C@H](CO)C[C@H]1O [Cordycepin] | inactive: 1.01 | inactive: 0.996 |
| CC(=O)O[C@]1(C(C)=O)CC[C@H]2[C@@H]3C=C(C)C4=CC(=O)CC[C@]4(C)[C@H]3CC[C@@]21C [Megestrol Acetate] | inactive: 1.01 | inactive: 1.11 |
| CN(C)C(=O)c1cc2cnc(Nc3ccc(N4CCNCC4)cn3)nc2n1C1CCCC1 [Ribociclib (LEE011)] | inactive: 1 | inactive: 1.03 |
| Cc1c(C)c2c(c(C)c1O)CCC(C)(CCCC(C)CCCC(C)CCCC(C)C)O2 (stereo not given) [Vitamin E] | inactive: 1.05 | inactive: 1.08 |
| Oc1cc(O)cc(/C=C/c2ccc(O)c(O)c2)c1 [Piceatannol] | inactive: 1 | inactive: 0.897 |
| CC[C@@]1(O)C(=O)OCc2c1cc1n(c2=O)Cc2cc3c(CN(C)C)c(O)ccc3nc2-1 [Topotecan HCl] | inactive: 1.03 | inactive: 1.05 |

| SMILES | nucleolar normality score (1 µM) | nucleolar normality score (10 µM) |
| --- | --- | --- |
| Cc1cc(Nc2cc(CN3CCOCC3)c3nc(C)c(Cc4ccc(Cl)cc4F)n3n2)n[nH]1 | inactive: 1.02 | inactive: 1.07 |
| COc1cc2ncnc(Nc3ccc(O)c(Br)c3)c2cc1OC | inactive: 1.03 | inactive: 0.868 |
| O=C(O)c1ccc(O)c2ncccc12 | inactive: 0.973 | inactive: 1.07 |
| O=C(c1ccc(Cl)cc1Cl)n1nnc2ccccc21 | inactive: 1.03 | inactive: 1 |
| CO[C@H]1/C=C\C=C(/C)C(=O)NC2=CC(=O)C(NCCN(C)C)=C(C[C@@H](C)C[C@H](OC)[C@H](O)[C@@H](C)/C=C(\C)[C@@H]1OC(N)=O)C2=O [Alvespimycin (17-DMAG) HCl] | active: 0.402 | active: 0.326 |
| O=C(/C=C/c1ccc(O)cc1)CC(=O)/C=C/c1ccc(O)cc1 [Bisdemethoxycurcumin (BDMC)] | inactive: 0.992 | active: 0.809 |
| COc1cc2c(Oc3ccc(NC(=O)C4(C(=O)Nc5ccc(F)cc5)CC4)cc3F)ccnc2cc1OCCCN1CCOCC1 | inactive: 1.01 | inactive: 1.04 |
| COc1cc(N2CCC(N(C)C)CC2)ccc1Nc1ncc(Cl)c(Nc2ccccc2P(C)(C)=O)n1 | active: 0.692 | active: 0.65 |
| C#Cc1cccc(Nc2ncnc3cc(OCCOC)c(OCCOC)cc23)c1 [Erlotinib] | inactive: 1.06 | inactive: 1.04 |
| NC(=O)c1cnc(N[C@@H]2CCCC[C@@H]2N)nc1Nc1cccc(-n2nccn2)c1 | inactive: 0.95 | inactive: 0.963 |
| Cc1ccc(-c2nn(C(C)(C)C)c3ncnc(N)c23)cc1 | inactive: 0.968 | active: 0.816 |
| CC/C(=C(\c1ccc(O)cc1)c1ccc(OCCN(C)C)cc1)c1ccccc1 [4-Hydroxytamoxifen] | inactive: 0.992 | inactive: 1.04 |
| Cc1c(C(=O)C=Cc2ccccc2)[n+](=O)c2ccccc2n1[O-] [Quinocetone] | inactive: 1.01 | inactive: 1.09 |
| CC1(C)O[C@H]2CC(=O)OC[C@]23[C@H]2CC[C@@]4(C)[C@H](c5ccoc5)OC(=O)[C@H]5O[C@]54[C@]2(C)C(=O)C[C@@H]13 [Limonin] | inactive: 0.965 | inactive: 0.882 |
| Cc1cc(C)c(CNC(=O)c2cc(-c3ccc(CN4CCOCC4)cc3)cc3c2cnn3C2CCCC2)c(=O)[nH]1 | inactive: 1.03 | inactive: 1.03 |
| NC(=O)c1cccc(-c2cc(Nc3ccc(OC(F)(F)F)cc3)ncn2)c1 | inactive: 1.08 | inactive: 0.946 |
| COc1ccc(Oc2cc(NCCC(F)(F)F)c3ncc(-c4ccc(C(=O)NC5CC5)c(C)c4)n3n2)c(F)c1F | inactive: 0.888 | inactive: 0.87 |
| C[C@@H](Nc1cc(F)cc(F)c1)c1cc(C(=O)N(C)C)cc2c(=O)cc(N3CCOCC3)oc12 | active: 0.853 | inactive: 0.992 |
| CCOC(=O)c1cnc2ccc(-c3cncc(NS(=O)(=O)c4ccccc4)c3)cn12 | inactive: 0.994 | inactive: 0.967 |
| CC(C)=CCCC(C)(O)C1CCC2(C)C1C(O)CC1C3(C)CCC(O)C(C)(C)C3CCC12C [(20S)-Protopanaxadiol] | inactive: 1.04 | inactive: 1.03 |

| SMILES | nucleolar normality score (1 µM) | nucleolar normality score (10 µM) |
| --- | --- | --- |
| O=C(NCC1(c2nc(-c3ccccc3)cs2)CCOCC1)c1cccc(-c2noc(C(F)(F)F)n2)c1 | inactive: 1.05 | inactive: 1.05 |
| O=C(O)C(=O)O.[NH-][C@@H]1CCCC[C@H]1[NH-].[Pt+2] [Oxaliplatin] | active: 0.618 | inactive: 1.04 |
| Cc1ccc(NC(=O)c2ccc(CN3CCN(C)CC3)cc2)cc1Nc1nccc(-c2cccnc2)n1 [Imatinib (STI571)] | inactive: 1.04 | inactive: 0.93 |
| CCc1c2c(nc3ccc(O)cc13)-c1cc3c(c(=O)n1C2)COC(=O)[C@]3(O)CC | active: 0.631 | active: 0.511 |
| CCc1cc2c(cc1N1CCC(N3CCOCC3)CC1)C(C)(C)c1[nH]c3cc(C#N)ccc3c1C2=O [Alectinib hydrochloride] | inactive: 1.05 | active: 0.333 |
| COc1cc(OC2CCN(C)CC2)ccc1Nc1ncc2c(n1)n(C1CCCC1)c(=O)n2C | inactive: 1.03 | inactive: 1.03 |
| Cc1cccc(-c2[nH]c(C(C)(C)C)nc2-c2ccc3c(c2)OCO3)n1 | inactive: 1.04 | inactive: 1.11 |
| CC(NC(=O)c1ccccc1/N=C/c1c(O)ccc2ccccc12)c1ccccc1 (stereo not given) [Sirtinol] | inactive: 1.1 | inactive: 1.1 |
| CCn1c(C(=O)N(C2CC2)C2CC2)cc2c3c(ncn3C)c(Nc3cc(C)n(C)n3)nc21 | inactive: 1.02 | inactive: 1.09 |
| CCCN1CCCC[C@H]1C(=O)Nc1c(C)cccc1C [Ropivacaine] | inactive: 1.01 | inactive: 1.06 |
| O=C(NCc1ccccc1)c1csc(Nc2ccncn2)n1 [Thiazovivin] | inactive: 1.03 | inactive: 1.03 |
| CNCc1ccc(-c2cc(-c3nc(-c4ccc(S(=O)(=O)C(C)C)cc4)cnc3N)on2)cc1 | active: 0.818 | active: 0.659 |
| NC(=O)c1cccc2cn(-c3ccc([C@@H]4CCCNC4)cc3)nc12 [Niraparib (MK-4827) tosylate] | inactive: 0.894 | inactive: 0.993 |
| O=C(CCc1ccc(O)cc1)c1c(O)cc(O)cc1O [Phloretin] | inactive: 1.09 | inactive: 1.09 |
| Cc1cn(CCN2CCN(c3ccccc3-c3cc(C#N)cc(C(=O)NCCCN4CCCC4)c3)CC2)c2ccccc12 | active: 0.787 | inactive: 0.994 |
| CN(CC(=O)N(Cc1ccc(C2CCCCC2)cc1)c1ccc(C(=O)O)cc1)S(=O)(=O)c1c(F)c(F)c(F)c(F)c1F | inactive: 1.1 | inactive: 0.998 |
| Oc1c(I)cc(Cl)c2cccnc12 [Clioquinol] | inactive: 1.03 | inactive: 1.09 |
| COc1cc2nccc(Oc3ccc(NC(=O)Nc4cc(C)on4)c(Cl)c3)c2cc1OC [Tivozanib (AV-951)] | inactive: 0.989 | inactive: 1.02 |
| CC(C)(C#N)c1cc(Cn2cncn2)cc(C(C)(C)C#N)c1 [Anastrozole] | inactive: 1.03 | inactive: 1.09 |
| COc1cccc(-c2cc(=O)c3ccccc3o2)c1N | inactive: 0.932 | inactive: 1 |
